Hit rate of the full screen: of about 48,000 compounds, about 550 (1.1%) were called active. Another 4% or so got no clear call; they are omitted. Cut-off read from the data, not from the text of the source: active = potency below about 15 µM; inconclusive = mostly about 16 µM to 33 µM; inactive = weaker than that. Some of the results follow.
Each compound was assayed against Lysosomal acid glucosylceramidase (Homo sapiens) (UniProt P04062) (assay: Glucocerebrosidase). Conditions: purified enzyme, resorufin glucoside fluorescence (screen aimed at inhibitors), 20 min.
How it was run: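 Wild-type enzyme at 0.2 nM final in 50mM citric acid/KH2PO4, 10mM sodium taurocholate, 0.01% tween-20, pH 5.9, with resorufin beta-D-glucopyranoside at 30 uM final. Compounds titrated, 20 min at RT, red fluorescence read; AC50 from titration.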
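Note: the screen sought inhibitors.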
Potency is the fitted concentration of half-maximal effect.

Sequence of UniProt P04062 (P04062 whole entry, looked up): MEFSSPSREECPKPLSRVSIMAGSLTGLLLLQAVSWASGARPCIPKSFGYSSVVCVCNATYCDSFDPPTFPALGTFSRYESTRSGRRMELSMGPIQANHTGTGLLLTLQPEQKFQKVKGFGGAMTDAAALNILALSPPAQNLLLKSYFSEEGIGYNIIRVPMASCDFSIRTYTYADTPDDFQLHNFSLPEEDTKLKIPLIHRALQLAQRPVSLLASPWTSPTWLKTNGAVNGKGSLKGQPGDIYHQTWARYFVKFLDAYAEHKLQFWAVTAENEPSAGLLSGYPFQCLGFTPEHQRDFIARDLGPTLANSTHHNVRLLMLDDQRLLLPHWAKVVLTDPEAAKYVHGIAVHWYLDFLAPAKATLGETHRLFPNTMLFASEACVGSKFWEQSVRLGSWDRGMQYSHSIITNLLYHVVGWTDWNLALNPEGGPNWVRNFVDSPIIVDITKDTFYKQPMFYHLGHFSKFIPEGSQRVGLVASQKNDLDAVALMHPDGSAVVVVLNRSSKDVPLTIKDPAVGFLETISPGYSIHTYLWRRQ

Potency, inactive:
CCc1c(C)nc2ncnn2c1Nc1ccc(C#N)c(Cl)c1 > 76.9 µM, Cc1c(C(=O)NC(C)C)oc2c1-c1[nH]ncc1CC2 > 76.9 µM, Cc1cccc(Nc2ncc3c(n2)CC(C)CC3=O)c1 (centres undefined) > 76.9 µM, COc1ccc(CCNC(=O)C2=COCCO2)cc1 > 76.9 µM, CCCCNC(=O)c1ccccc1NC(=O)c1ccccc1N(C)S(C)(=O)=O > 76.9 µM, CCOc1ccc(NC(=O)CSc2nnnn2CC(=O)O)cc1 > 76.9 µM, COc1ccc(CC(=O)N2CCNC2=O)cc1 > 76.9 µM, O=C(COc1cc(Cl)c(Cl)cc1Cl)Nn1cnnc1 > 76.9 µM, Cc1ccc(S(=O)(=O)N2CCCC2C(=O)Nc2cc(C)on2)cc1 (centres undefined) > 76.9 µM, Cc1ccc(-n2nc(C)c3c2OC(N)=C(C#N)C3c2ccncc2)cc1 (centres undefined) > 76.9 µM, C/C=C(\C)c1nnc(NC(=O)C(C)C)s1 > 76.9 µM, Cn1c(=O)c2c(nc(NCCCO)n2CCc2ccccc2)n(C)c1=O > 76.9 µM, CCC(C)[C@H](NC(=O)Nc1ccc(C(C)=O)cc1)C(=O)OC (some centres undefined) > 76.9 µM, Cc1ccc(OCCNS(=O)(=O)c2cccs2)cc1 > 76.9 µM, Cc1cc2oc(C(=O)Nc3c(C)n(C)n(-c4ccccc4)c3=O)c(C)c2cc1C > 76.9 µM, O=S(=O)(c1cccc(C(F)(F)F)c1)N1CCN(c2nnnn2-c2ccccc2)CC1 > 76.9 µM, COc1ccccc1NC(=O)NC(N)=O > 76.9 µM, CCCOc1ccc(N2C(=O)CC(N(O)c3ccccc3)C2=O)cc1 (centres undefined) > 76.9 µM, CC(C)Sc1ncnc2c1oc1ccccc12 > 76.9 µM, COCCOC(=O)C1=C(C)N=C2SCCC(=O)N2C1c1cccc(Br)c1 (centres undefined) > 76.9 µM, Cc1ccc(C2C(C#N)=C(N)SC(N)=C2C#N)cc1 > 76.9 µM, COC(=O)CSc1nnc(C2COc3ccccc3O2)n1-c1ccccc1 (centres undefined) > 76.9 µM, O=C(CN1CCN(c2ccc(F)cc2)CC1)Nc1nnc(-c2ccccc2)s1 > 76.9 µM, COCCCn1c(-c2ccsc2)nc2c1c(=O)[nH]c(=O)n2Cc1ccccc1 > 76.9 µM, Cc1cc(=O)n2nc(N3CCC(C(=O)N4CCN(C)CC4)CC3)sc2n1 > 76.9 µM, Cc1cccc(NC(=O)c2cc(-c3ccco3)nc3ccccc23)n1 > 76.9 µM, Cc1cc(C)nc(SC2CCCCC2O)n1 (centres undefined) > 76.9 µM, O=c1c2ccccc2c(/C=N/n2cnnc2)c(O)n1-c1ccccc1 > 76.9 µM, COc1cccc(C(c2nnnn2C(C)(C)C)N2CCN(C3CCCCC3)CC2)c1OC (centres undefined) > 76.9 µM, COCCN1Cc2cccc(C(=O)Nc3cccnc3)c2C1=O > 76.9 µM, O=S(=O)(c1ccc(Nc2ccc3c(c2)OCO3)nc1)N1CCOCC1 > 76.9 µM, O=C(CN1C(=O)NC2(CCCc3ccccc32)C1=O)N1CCN(C(=O)c2ccco2)CC1 (centres undefined) > 76.9 µM, COc1ccc(NC(=O)CSc2nnc(CN3CCOCC3)n2-c2ccccc2)cc1Cl > 76.9 µM, CSCCC(Nc1nc2ccccc2s1)C(=O)O (centres undefined) > 76.9 µM, CCc1nc(C)c(-c2ccccc2)c(=O)[nH]1 > 76.9 µM, CC1CCCN(CC(O)COc2ccc(Cl)cc2)C1 (centres undefined) > 76.9 µM, O=C(O)CNC1=NCCCCC1 > 76.9 µM, CC(=O)NCC(=O)N(Cc1ccco1)C1(C(=O)NC2CCCCC2)CCCCC1 > 76.9 µM, CCOC(=O)c1ccc(CNC(=O)C(Cc2c[nH]c3ccccc23)NC(C)=O)o1 (centres undefined) > 76.9 µM, CC(NC(=O)Cc1cccs1)C(c1cccs1)N1CCOCC1 (centres undefined) > 76.9 µM, COc1ccc2[nH]c(=O)c(CN(Cc3cccs3)Cc3nnnn3C(C)(C)C)cc2c1, CCCn1c(SCC(=O)N2CCCc3ccccc32)nnc1-c1ccco1 > 76.9 µM, CCOc1cc(-c2nc(-c3ccc(C)nc3OCC)no2)cc(OCC)c1OCC > 76.9 µM, CCN(CC)C(=O)CN1CCN(c2ncccn2)CC1 > 76.9 µM, COc1ccc(-c2[nH]nc3c2C(c2ccncc2)C(C#N)=C(N)O3)cc1 (centres undefined) > 76.9 µM, CCN(CC)CCSc1nc(O)c(-c2ccccc2)c(=O)[nH]1 > 76.9 µM, Cc1nnc(NC2=NCCCCC2)o1 > 76.9 µM, COc1ccccc1Nc1nc(N)nc(CSc2nncn2C)n1 > 76.9 µM, Cc1ccc(N(Cc2cc(=O)[nH]c3ccccc23)C(=O)c2ccco2)cc1 > 76.9 µM, C=C(C)c1cccc(C(C)(C)NC(=O)Nn2cnnc2)c1 > 76.9 µM, Cc1noc(C)c1COC(=O)CN(C)S(=O)(=O)c1ccc(Cl)cc1 > 76.9 µM, COc1ccc(-c2nnnn2CCc2ccccc2)cc1 > 76.9 µM, COc1ccccc1CNC(=O)CCCNS(=O)(=O)c1cccc2nsnc12 > 76.9 µM, COc1ccc(S(=O)(=O)N(CCc2ccccc2)CC(=O)NCCCO)cc1 > 76.9 µM, CC(C(=O)N1CCOCC1)(c1ccccc1)c1ccccc1 > 76.9 µM, CCOC(=O)C1=CN(C)C=C(C(=O)OCC)C1c1ccsc1 > 76.9 µM, CSc1nc2c(c(=O)n1Cc1ccccc1)SC(C)C2 (centres undefined) > 76.9 µM, COc1ccc(NC(=O)CSc2nc(NS(=O)(=O)c3ccccc3)cc(=O)[nH]2)cc1 > 76.9 µM, COC(=O)c1[nH]c2ccccc2c1NC(=O)CN1CCN(C(=O)c2ccco2)CC1 > 76.9 µM, COc1cc(CNC2CCCCCC2)cc(OC)c1OC > 76.9 µM, COC(=O)c1nc(-c2ccc(C)cc2)oc1N(C)C > 76.9 µM, c1ccc(Cc2nnc(-c3ccccc3)o2)cc1 > 76.9 µM, CCCC(=O)Nc1cc(-c2nnc(OC)c3ccccc23)ccc1N1CCOCC1 > 76.9 µM, Cc1cc2cc(CNC(=O)Nc3ccccc3)ccc2n1C > 76.9 µM, CCOC(=O)C1=C(CSc2nncn2C)NC(=O)NC1c1cc(OCC)ccc1OCC (centres undefined) > 76.9 µM, Cc1ccc(-n2nnnc2SC(C)C(=O)Nc2ccc(Cl)cn2)cc1 (centres undefined) > 76.9 µM, C=CCN1C(=O)C(O)(CC(=O)c2ccccc2)c2ccccc21 (centres undefined) > 76.9 µM, Nc1ccc2c(c1)C(=O)N(CC1CCCO1)C2=O (centres undefined) > 76.9 µM, COc1ccc(S(=O)(=O)N2CCn3c2nc2ccccc23)cc1 > 76.9 µM, CC(=O)Nc1cccc(NC(=O)CSc2nnc(Cc3cccn3C)n2-c2ccc(F)cc2)c1 > 76.9 µM, O=C(NCC1CCCO1)c1cccc(-n2cnnn2)c1 (centres undefined) > 76.9 µM, CCC(=O)N1CCc2cc(S(=O)(=O)NCCCN3CCN(Cc4ccccc4)CC3)ccc21 > 76.9 µM, Cn1c(=O)cc(OCC(=O)NCCCN2CCN(c3ccccc3F)CC2)c2ccccc21 > 76.9 µM, Cn1c(C(=O)OCC(=O)NCC2CCCO2)cc2sccc21 (centres undefined) > 76.9 µM, Cc1[nH]c2ccccc2c1C(=O)CSCC(=O)O > 76.9 µM, CCOC(=O)c1sc(NC(=O)CSc2nnc(C(C)C)n2CC)nc1C > 76.9 µM, CS(=O)(=O)N(CC(=O)N1CCOCC1)Cc1ccccc1 > 76.9 µM, O=C(Nc1ccccc1Oc1ccccc1)c1cnccn1 > 76.9 µM, CCCN(Cc1cc2cc(OC)ccc2[nH]c1=O)C(=O)c1ccncc1 > 76.9 µM, CCN(CC)CCCN1C(=O)C(O)=C(C(=O)c2ccco2)C1c1cc(OC)ccc1OC (centres undefined) > 76.9 µM, Cc1csc(NC(=O)c2ccccc2C(=O)O)n1 > 76.9 µM, COC(=O)c1ccc(NC(=O)Cn2nnc3ccccc32)cc1 > 76.9 µM, CCC(C)NC(=O)c1cnn2c(C)c3c(nc12)CCCC3 (centres undefined) > 76.9 µM, O=C(CC1COc2ccccc2O1)NCc1ccccc1 (centres undefined) > 76.9 µM, COc1ccc(CC(=O)NC(CC(=O)O)c2ccc(OC)cc2)cc1 (centres undefined) > 76.9 µM, COc1ccccc1-n1c(C)nc(=O)c(-c2ccccc2)c1C > 76.9 µM, CCCC(=O)Nc1ccc(-c2nc3cc(C)ccc3o2)cc1 > 76.9 µM, Cc1ccc(Nc2ncccc2C(=O)O)cc1C > 76.9 µM, Cc1csc(NC(=O)CSc2nc(C)cs2)n1 > 76.9 µM, Cn1c(=O)n(C/C=C/c2ccccc2)c(=O)c2c1nc1n2CCCN1Cc1ccccc1 > 76.9 µM, COc1cccc(C2=NOC(C(=O)NCCN3CCOCC3)C2)c1 (centres undefined) > 76.9 µM, O=C(Nc1c(-c2ccccc2)nc2c(Br)cc(Br)cn12)c1ccco1 > 76.9 µM, Cc1ccc2cc(CN(C(=O)c3ccncc3)C(C)C)c(=O)[nH]c2c1 > 76.9 µM, CC(=O)c1cnc2nc(C(F)(F)F)nn2c1C > 76.9 µM

Reference: PubChem BioAssay AID360 (National Center for Advancing Translational Sciences (NCATS), 2006)
